We go through ten variants from the supplement of paper PMC12217912.

The list shows a part of the results. The full chains were built here from the parent and the listed change. Values near 0.05 are background.

First the molecules themselves.
B1: TEV protease; numbered along this chain (parent)
chain: MGESLFKGPRDYNPISSSICHLTNESDGHTTSLYGIGFGPFIITNKHLFRRNNGTLVVQSLHGVFKVKDTTTLQQHLVDGRDMIIIRMPKDFPPFPQKLKFREPQREERICLVTTNFQTKSMSSMVSDTSCTFPSGDGIFWKHWIQTKDGQCGSPLVSTRDGFIVGIHSASNFTNTNNYFTSVPKNFMELLTNQEAQQWVSGWRLNADSVLWGGHKVFMVKPEEPFQPVKEATQL

This assay covers variants of B1. In words: raw area under fraction-flipped curve 0-4 h after induction (AUC4h, not background-subtracted), DNA-recorder readout of cleavage of the substrate (dimensionless); higher = more cleavage of the substrate by the protease variant. The conditions noted are these: temperature: 34 °C; time window: 0-4 h after rhamnose induction.
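Also: Bxb1 expression induced with 0.2% (w/v) L-rhamnose at OD600 near 0.5, cultures sampled hourly, flipped fraction per protease–substrate barcode pair counted by paired-end Illumina sequencing.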

On to MGESLFKGPRDYNPISSSICHLTNESDGHTTSLYGIGFGPFIITNKHLFRRNNGTLVVQSLHGVFKVKDTTTLQQHLVDGRDMIIIRMPKDFPPFPQKLAFREPQREERICLVTTNFQTKSMSSMVSDTSCTFPSGDGIFWKHWIQTKDGQCGSPLVSTRDGFIVGIHSASNFTNTNNYFTSVPKNFMELLTNQEAQQWVSGWRLNADSVLWGGHKVFMVKPEEPFQPVKEATQL [K100A], for which the “area with substrate ENLYFQC” value came out at 0.0652, the “area with substrate ENLYFQD” value was determined as 0.0921, the “area with substrate ENLYFQE” value came out at 0.0854 and the “area with substrate ENLYFQH” value is 0.0564. The “area with substrate ENLYFQI” value was 0.0649, the “area with substrate ENLYFQK” value came out at 0.0707, the “area with substrate ENLYFQM” value worked out at 0.0986 and the “area with substrate ENLYFQR” value turned out to be 0.0553. Besides, the “area with substrate ENLYFQS” value was found to be 0.114.
As to MGESLFKGPRDYNPISSSICHLTNESDGHTTSLYGIGFGPFIITNKHLFRRNNGTLVVQSLHGVFKVKDTTTLQQHLVDGRDMIIIRMPKDFPPFPQKLKFREPQREERICLVTTNFQTKSMSSMVSDTSCTFPSGDGIFWKHWIQTKDGQCGSPLVSTRDGFIVGIHSASNFTNTNNYFTSSPKNFMELLTNQEAQQWVSGWRLNADSVLWGGHKVFMVKPEEPFQPVKEATQL [V183S], the “area with substrate ENLYFQC” value was determined as 0.107, the “area with substrate ENLYFQG” value was found to be 0.0868, the “area with substrate ENLYFQH” value is 0.0688 and the “area with substrate ENLYFQI” value worked out at 0.0464. Moreover, the “area with substrate ENLYFQK” value came out at 0.0569, the “area with substrate ENLYFQL” value was 0.0507, the “area with substrate ENLYFQM” value came out at 0.0726 and the “area with substrate ENLYFQN” value amounted to 0.0769. Besides, the “area with substrate ENLYFQP” value worked out at 0.0392, the “area with substrate ENLYFQS” value worked out at 0.0867, the “area with substrate ENLYFQV” value came to 0.0642 and the “area with substrate ENLYFQW” value was found to be 0.0304. In addition, the “area with substrate ENLYFQY” value was determined as 0.0781.
MGESLFKGPRDYNPISSSICHLTNESDGHTTSLYGIGFGPFIITNKHLFRRNNGTLVVQSLHGVFKVKDTTTLQQHLVDGRDMIIIRMPKDFPPFPQKLKFREPQREERICLVTTNFQTKSMSSMVSDTSCTFPSGDGIFWKHWIQTKDGQCGSPLVSTRDGFIVGIHSASNFTNTNNYFTSVPKNFMELLTNQEAQQWVSGWRLNADSVLWGGHKVFMVAPEEPFQPVKEATQL [K221A]: the “area with substrate ENLYFQC” value stood at 0.1, the “area with substrate ENLYFQG” value was 0.0924, the “area with substrate ENLYFQL” value is 0.0448 and the “area with substrate ENLYFQR” value is 0.0638. In addition, the “area with substrate ENLYFQS” value is 0.0953.
Regarding MGESLFKGPRDYNPISSSICHLTNESDGHTTSLYGIGFGPFIITNKHLFRRNNGTLVVQSLHGVFKVKDTTTLQQHLVDGRDMIIIRMPKDFRPFPQKLKFREPQREERICLVTTNFQTKSMSSMVSDTSCTFPSGDGIFWKHWIQTKDGQCGSPLVSTRDGFIVGIHSASNFTNTNNYFTSVPKNFMELLTNQEAQQWVSGWRLNADSVLWGGHKVFMVKPEEPFQPVKEATQL [P93R], the “area with substrate ENLYFQC” value was 0.106, the “area with substrate ENLYFQF” value amounted to 0.0613 and the “area with substrate ENLYFQS” value was found to be 0.102.
Turning to MGESLFKGPRDYNPVSSSICHLTNESDGHTTSLYGIGFGPFIITNKHLFRRNNGTLVVQSLHGVFKVKDTTTLQQHLVDGRDMIIIRMPKDFPPFPQKLKFREPQREERICLVTTNFQTKSMSSMVSDTSCTFPSGDGIFWKHWIQTKDGQCGSPLVSTRDGFIVGIHSASNFTNTNNYFTSVPKNFMELLTNQEAQQWVSGWRLNADSVLWGGHKVFMVKPEEPFQPVKEATQL [I15V], the “area with substrate ENLYFQC” value was found to be 0.105, the “area with substrate ENLYFQD” value worked out at 0.0696, the “area with substrate ENLYFQG” value is 0.0964 and the “area with substrate ENLYFQH” value worked out at 0.0851. For the same variant, the “area with substrate ENLYFQI” value was 0.0612, the “area with substrate ENLYFQK” value was 0.0657, the “area with substrate ENLYFQL” value was found to be 0.0665 and the “area with substrate ENLYFQM” value is 0.0831. The “area with substrate ENLYFQN” value was determined as 0.0586, the “area with substrate ENLYFQP” value was determined as 0.0456, the “area with substrate ENLYFQR” value was determined as 0.0603 and the “area with substrate ENLYFQS” value turned out to be 0.103. Besides, the “area with substrate ENLYFQT” value is 0.0684, the “area with substrate ENLYFQV” value was determined as 0.0567, the “area with substrate ENLYFQW” value came out at 0.0595 and the “area with substrate ENLYFQY” value stood at 0.0876.
Regarding MGESLFKGPRDYNPISSSICHLTNESDGHTTSLYGIGFGPFIITNKHLFRRNNGTLVVQSLHGVFKVKDTTTLQQHLVDGRDMIIIRMPKDFPPFPQKLKFREPQREERICLVTTNFQTKSMSSMVSDTSCTFPSGDGIFWKHWIQTKDGQCGSPLVSTRDGFIVGIHSASNFTNTNNYFTSVPKNFMELLTNQEAQQWVSGWRLNADSVLWQGHKVFMVKPEEPFQPVKEATQL [G213Q], the “area with substrate ENLYFQC” value is 0.0558, the “area with substrate ENLYFQI” value is 0.0459, the “area with substrate ENLYFQL” value was determined as 0.059 and the “area with substrate ENLYFQR” value worked out at 0.0531. Besides, the “area with substrate ENLYFQS” value worked out at 0.0613 and the “area with substrate ENLYFQW” value came to 0.061.
For the variant MGESLFKGPRDYNPISSSICHLTNESDGHTTSLYGIGFGPFMITNKHLFRRNNGTLVVQSLHGVFKVKDTTTLQQHLVDGRDMIIIRMPKDFPPFPQKLKFREPQREERICLVTTNFQTKSMSSMVSDTSCTFPSGDGIFWKHWIQTKDGQCGSPLVSTRDGFIVGIHSASNFTNTNNYFTSVPKNFMELLTNQEAQQWVSGWRLNADSVLWGGHKVFMVKPEEPFQPVKEATQL [I42M], the “area with substrate ENLYFQC” value worked out at 0.105, the “area with substrate ENLYFQD” value was found to be 0.0472, the “area with substrate ENLYFQF” value worked out at 0.0684 and the “area with substrate ENLYFQG” value was found to be 0.15. Also, the “area with substrate ENLYFQH” value worked out at 0.0722, the “area with substrate ENLYFQI” value amounted to 0.0522, the “area with substrate ENLYFQK” value is 0.0723 and the “area with substrate ENLYFQL” value was found to be 0.0871. For the same variant, the “area with substrate ENLYFQM” value came to 0.0832, the “area with substrate ENLYFQN” value is 0.0805, the “area with substrate ENLYFQS” value was found to be 0.097 and the “area with substrate ENLYFQT” value worked out at 0.0626. The “area with substrate ENLYFQV” value stood at 0.0605 and the “area with substrate ENLYFQY” value came out at 0.08.
With MGESLFKGPRDYNPISSSICHLTNESDGHTTSLYGIGFGPFIITNKHLFRRNNGTLVVQSLHGVFKVKDTTTLQQHLVDGRDMIIIRMPKDFPPFPQKLKFREPQREERICLVTTNFQTKSMSSMVSDTSCTFPSGDGIFWKHWIQTKDGQCGSPLYSTRDGFIVGIHSASNFTNTNNYFTSVPKNFMELLTNQEAQQWVSGWRLNADSVLWGGHKVFMVKPEEPFQPVKEATQL [V157Y], the “area with substrate ENLYFQC” value amounted to 0.0916, the “area with substrate ENLYFQD” value was 0.0686, the “area with substrate ENLYFQF” value is 0.0594 and the “area with substrate ENLYFQG” value was 0.0873. Besides, the “area with substrate ENLYFQI” value stood at 0.0598, the “area with substrate ENLYFQK” value stood at 0.0638, the “area with substrate ENLYFQL” value worked out at 0.0528 and the “area with substrate ENLYFQN” value was determined as 0.0622. Further, the “area with substrate ENLYFQQ” value turned out to be 0.0726, the “area with substrate ENLYFQR” value was 0.0435, the “area with substrate ENLYFQS” value stood at 0.0796 and the “area with substrate ENLYFQT” value turned out to be 0.0567. The “area with substrate ENLYFQV” value came to 0.0486 and the “area with substrate ENLYFQW” value was 0.05.
For MGESLFKGPRDYNPISSSICHLTNESDGHTTSLYGIGFGPFIITNKHLFRRNNGTLVVQSLHGVFKVKDTTTLQQHLVDGRDMIIIRMPKDFPPFPQKLKFREPQREERICLVTTNFQTKSMSSMVSDTLCTFPSGDGIFWKHWIQTKDGQCGSPLVSTRDGFIVGIHSASNFTNTNNYFTSVPKNFMELLTNQEAQQWVSGWRLNADSVLWGGHKVFMVKPEEPFQPVKEATQL [S130L], the “area with substrate ENLYFQC” value was 0.0809, the “area with substrate ENLYFQD” value stood at 0.0548, the “area with substrate ENLYFQE” value stood at 0.0699 and the “area with substrate ENLYFQG” value is 0.0844. Besides, the “area with substrate ENLYFQH” value was found to be 0.0789, the “area with substrate ENLYFQI” value is 0.0559, the “area with substrate ENLYFQL” value was determined as 0.0597 and the “area with substrate ENLYFQN” value stood at 0.0702. The “area with substrate ENLYFQR” value worked out at 0.0635, the “area with substrate ENLYFQS” value stood at 0.0752, the “area with substrate ENLYFQT” value came to 0.0739 and the “area with substrate ENLYFQV” value is 0.0636. In addition, the “area with substrate ENLYFQW” value came to 0.0676 and the “area with substrate ENLYFQY” value came out at 0.0758.
Consider MGESLFKGPRDYNPISSSICHLTNESDGHTTSLYGIGFGPFIITNKHLFRRNNGTLVVQSSHGVFKVKDTTTLQQHLVDGRDMIIIRMPKDFPPFPQKLKFREPQREERICLVTTNFQTKSMSSMVSDTSCTFPSGDGIFWKHWIQTKDGQCGSPLVSTRDGFIVGIHSASNFTNTNNYFTSVPKNFMELLTNQEAQQWVSGWRLNADSVLWGGHKVFMVKPEEPFQPVKEATQL [L61S], for which the “area with substrate ENLYFQC” value came to 0.104, the “area with substrate ENLYFQF” value worked out at 0.0716, the “area with substrate ENLYFQI” value was 0.0547 and the “area with substrate ENLYFQL” value was determined as 0.0461. Besides, the “area with substrate ENLYFQP” value is 0.0583, the “area with substrate ENLYFQR” value is 0.0665, the “area with substrate ENLYFQS” value turned out to be 0.0989 and the “area with substrate ENLYFQT” value came to 0.0655. Besides, the “area with substrate ENLYFQV” value is 0.0771 and the “area with substrate ENLYFQW” value stood at 0.0665.
